Source: PubChem BioAssay AID1346428 (National Center for Advancing Translational Sciences (NCATS), 2018)
Several values for one entry are separate records, joined by “and”; a condition that tells them apart may be missing. Identical values can stand only once. Screen size: about 48,000 compounds; about 1,200 (2.5%) were called active. Roughly 2% stayed inconclusive and do not appear here.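 The calls were made as follows: active = activation of at least 60% and not above a set upper limit (about 1 call in 100 departs from these limits); inconclusive = activation of 40% to 60%, or above that upper limit; inactive = activation under 40%.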 The list shows a part of the results.

Molecular target: Probable G-protein coupled receptor 32 (Homo sapiens) (UniProt O75388)
Chain of UniProt O75388 (O75388 whole entry, looked up): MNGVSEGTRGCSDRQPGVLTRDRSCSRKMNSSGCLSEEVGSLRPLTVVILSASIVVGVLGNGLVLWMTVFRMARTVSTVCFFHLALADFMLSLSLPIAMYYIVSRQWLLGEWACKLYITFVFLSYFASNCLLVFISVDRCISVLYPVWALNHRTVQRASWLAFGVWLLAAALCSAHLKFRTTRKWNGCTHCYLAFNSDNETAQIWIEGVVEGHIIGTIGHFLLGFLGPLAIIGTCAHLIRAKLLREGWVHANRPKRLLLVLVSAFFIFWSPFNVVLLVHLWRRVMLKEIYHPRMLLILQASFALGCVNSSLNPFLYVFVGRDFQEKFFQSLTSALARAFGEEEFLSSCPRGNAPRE
Experiment: qHTS for Agonists of Human Resolvin D1 Receptor DRV1; also: 0% is about no effect
Conditions: CHO-K1 GPR32 beta-arrestin PathHunter luminescence, 90 min; at 76.9 µM; active compounds read high; zero percent set by DMSO-only wells
Procedure, shortened: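 PathHunter enzyme-fragment complementation, CHO-K1 GPR32 stable line; 2,500 cells/well, overnight attach; cpd 90 min 37 °C 5% CO2; detection reagent 1 h RT; chemiluminescence. DMSO = EC0.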

activation, active:
CC(=O)Nc1ccc(NS(=O)(=O)c2ccc3[nH]c4c(c3c2)CCCCC4)cc1 80%
Cc1cc(C)c2c(=O)cc(CSc3nnc(-c4ccccc4)n3C)[nH]c2c1 60.7%
CC(=O)Nc1ccc(S(=O)(=O)NCc2cccn2Cc2cccc(C)c2)cc1 87.9%
CCOc1ccc(CC(=O)NCCc2csc(-c3ccc(Cl)cc3)n2)cc1 87.7%

activation, inactive:
CC(=O)c1cccc(NC(=O)CN2C(=O)c3cccnc3Sc3ccccc32)c1 -5.62%
CCN1CCOC(=O)C1CC(=O)Nc1ccc(C(C)=O)cc1 (centres undefined) 31%
COc1cc(CN(C(=O)c2ccc(OC(C)C)cc2)C2CCS(=O)(=O)C2)cc(OC)c1OC (centres undefined) -12.3%
CCc1ccccc1NC(=O)c1sc2nc3n(c(=O)c2c1C)CCC3 -12.4%
Cc1ccccc1OCc1ccc(-c2nc(C#N)c(N3CCN(c4ccccc4)CC3)o2)o1 -22.1%
CCOc1ccc(CNC(=O)c2ccc(NC(=O)N3CCSc4ncccc43)cc2)cc1OC 1.47%
COc1cccc(Cn2c(C)c(CNCc3ccccc3Cl)c(C(=O)O)c2C)c1 10.7%
CN(C)c1cc2c(cc1NC(=O)c1ccc(F)cc1)n(C)c(=O)n2C -9.7%
N#CC1(c2ccc(F)cc2)CCC(=O)CC1 -6.82%
CCc1ccc(-c2cc(C)no2)cc1S(=O)(=O)Nc1ccc(C)cn1 -10.4%
CNC(=O)C1CCN(Cc2cc3ccccc3n2Cc2cccc(C)c2)CC1 -1.46%
CC(C)CCNC(=O)C1CCN(S(=O)(=O)c2cccc3nsnc23)CC1 10.4%
Cc1cccc(-c2nnn3c2nc(NCc2ccccc2)c2ccccc23)c1 34.2%
CCCC(CCC)C(=O)Nc1cccc(-c2nc3cccnc3s2)c1 -8.88%
CCc1ccccc1NC(=O)N1CCC2(CC1)Oc1ccccc1C(=O)N2Cc1ccccc1F -16.7%
COc1ccc(CCN2C(=O)N(c3ccc(F)cc3)C(=O)C2CC(=O)Nc2ccc(OC)cc2)cc1 (centres undefined) 27.8%
CCOc1ccc(C(=O)NCC(c2ccc3c(c2)OCO3)N2CCN(c3ccc(F)cc3)CC2)cc1 (centres undefined) -19.3%
CCCCC1C(=O)N(c2ccccc2)N(c2ccccc2)C1=O -12.7% and -28.4%
Cc1ccc(-n2nc3c(N4CCC(C(=O)NCCc5ccccc5C)CC4)nnc(C)c3c2C)cc1 -15.9%
Cc1ccc(CN2CCN(C3CCN(C(=O)c4ccc(C)cc4)CC3)C(=O)C2=O)cc1 -4.22%
CC1CCN(Cc2c(O)ccc3c(=O)c(-c4ccc(Cl)cc4)c(C(F)(F)F)oc23)CC1 -37.9%
CC(C)(C)c1cc(C(C)(C)C)c2oc(=O)c(-c3nc4ccc(C(=O)O)cc4[nH]3)cc2c1 3.72%
COc1cc(OC)c(NC(=O)N2CCN3CCCCC3C2)cc1Cl (centres undefined) -17.4%
CC(=O)N1CCc2cc(S(=O)(=O)NC(CC(C)C)C(=O)NCCc3ccccc3)ccc21 (centres undefined) 11.9%
CCOC(=O)c1ccccc1NC(=O)CSc1cc(C)[nH]c(=O)n1 -5.04%
COc1ccc(Cl)cc1NC(=O)CCN1C(=O)c2ccccc2Sc2ncccc21 -7.45%
CC(C)C(=O)N1c2nc(C(C)C)nn2C2(CCCCC2)[C@@H]2CCCC[C@@H]21 -9.56%
COc1ccc(OC)c(Nc2ncc3c(n2)CCN(Cc2cc(OC)c(OC)c(OC)c2)C3)c1 7.53%
COc1cc(-c2nnc(SCC(=O)Oc3ccccc3)o2)cc(OC)c1OC -9.91%
Cc1ccc(Nc2nc3ccccc3c3nnc(C)n23)cc1Cl -37.6%
O=C(c1ccc2c(c1)CCN2S(=O)(=O)c1ccc(Cl)cc1)N1CCN(c2ccccc2)CC1 -12%
COc1ccc(OC)c(CNC(=O)c2c(C)oc3ncn(C)c(=O)c23)c1 -6.6%
COc1ccc(N2CC(NC(=O)c3ccco3)CC2=O)cc1OC (centres undefined) -5.54%
CCOc1ccc(CN2C(=O)c3ccccc3Sc3ccc(C(=O)OC)cc32)cc1 -24.9%
COc1ccc(CNC(=O)c2ccc3c(c2)N(Cc2ccccc2C)C(=O)c2ccccc2S3=O)cc1 (centres undefined) -32%
O=C(NCc1ccc(F)cc1)C1CCN(c2ncnc3c2nc2n3CCCCC2)CC1 -1.06%
Nc1ccccc1N -24.4%
COc1ccc(CNc2oc(/C=C/c3cccc(OC)c3)nc2C#N)cc1 -2.96%
CN(Cc1ccccc1)C(=O)c1cccc(NC(=O)c2nsc3ccccc23)c1 -17.6%
COc1cc(C(CC(=O)Nc2cc(C)ccc2C)N2Cc3ccccc3C2=O)cc(OC)c1OC (centres undefined) 15.3%
Cc1ccc2nc(-c3ccncc3)c(Nc3ccc(C(C)C)cc3)n2c1 -26%
CCOC(=O)c1[nH]c(C)c(CCC(=O)N2CCN(c3cccc(C)c3C)CC2)c1C -20.5%
CCOCCCNC(=O)c1cn(CC)c2ccc(S(=O)(=O)N3CCc4ccccc4C3)cc2c1=O 3.07%
CC(C)(C)OC(=O)N1CCC(c2c(C(=O)N3CCN(c4ccccn4)CC3)cnn2-c2ccccc2Cl)CC1 -21.3%
CC(=O)c1ccc(NC(c2ccc(F)cc2)c2nnc(-c3ccccc3)o2)cc1 (centres undefined) -12.3%
CCOCCc1nn2c(=O)cc(COC(=O)CNC(=O)c3ccc(F)cc3)nc2s1 -11%
Cc1ccc(CSc2nc(-c3ccc(C(C)(C)C)cc3)nc3cc(=O)[nH]n23)cc1 21.2%
CCc1ccc(Nc2sc(C(=O)c3ccccc3)c(N)c2S(C)(=O)=O)cc1 -50%
CCN(CC)CCCNC(=O)CSc1nc2nc(C)c(Cc3c(F)cccc3Cl)c(C)n2n1 0.772%
CCc1ccc(-n2nc(CO)c(C(=O)NCC(c3ccccc3)c3ccccc3)n2)cc1 -21.9%
Cc1ccc(N(Cc2cc3ccccc3[nH]c2=O)C(=O)c2cccc(Cl)c2)cc1 -19.5%
O=C(O)Cc1ccc(O)c(O)c1 -5.58%
Cc1ccc(-c2cn3c(n2)sc2cc(C(=O)NCc4cccs4)ccc23)c(C)c1 -5.19%
CC(C)NC(=O)C(c1ccccc1)N1Cc2ccccc2C1=O (centres undefined) -16.6%
COc1ccc(Cn2ccc3nc(C)c(C(=O)N4CCN(c5ccccc5OC)CC4)cc3c2=O)cc1 -1.27%
CC(C)c1ccc2occ(CC(=O)Nc3ccccc3Cl)c2c1 -3.21%
COc1ccc(OCC2c3cc(OC)c(OC)cc3CCN2C(=O)COc2ccc(Cl)cc2Cl)cc1 (centres undefined) -11.6%
COc1ccc(-c2noc(CSc3nc(C)cc(=O)[nH]3)n2)cc1OC -6.05%
Cc1ccc(CSc2nnc(-n3c(=O)c(C#N)cc4c(=O)n5cc(C)ccc5nc43)s2)cc1 7.63%
CCCc1nc2c(C)cc(-c3nc4ccccc4n3C)cc2n1Cc1ccc(-c2ccccc2C(=O)O)cc1 -18.1%
Cc1ccc(C)c(NC(=O)Cn2c(=O)n(Cc3ccc4c(c3)OCO4)c(=O)c3oc4ccccc4c32)c1 -15.5%
CC1=C(C(N)=O)C(c2cccc(C)c2)n2nc(-c3cccc(C)c3)nc2N1 (centres undefined) -19.4%
CCCCOC(=O)c1ccc(O)cc1 -0.477%
CCOC(=O)C1CCN(S(=O)(=O)c2ccc(N3CCCCS3(=O)=O)cc2)CC1 4.89%
CC(C)C1N=C2c3ccccc3N=C(SCC(=O)NCc3ccccc3Cl)N2C1=O (centres undefined) -11.4%
Cc1ccc(CNC(=O)c2cc(-c3ccc(C)cc3)nc3n[nH]c(-c4ccc(F)cc4)c23)cc1 -12.7%
CCn1c(SCc2ccc(F)cc2Cl)nc(=O)c2c(C(=O)OC)cc(C3CC3)nc21 -14.4%
COCCCOc1cc(C[C@@H](C[C@H](N)[C@@H](O)C[C@H](C(=O)NCC(C)(C)C(N)=O)C(C)C)C(C)C)ccc1OC -10.1%
CCCn1c(=O)c2sccc2n2c(CCCC(=O)Nc3ccc(Oc4ccccc4)cc3)nnc12 -9.09%
CCOc1ccc(NC(=O)Cn2c(=O)c(CNc3ccccc3)cc3cc4c(cc32)OCCO4)cc1 -32.7%
CCCc1ccc(-c2ccc(C(=O)Oc3ccc(Br)cc3)cc2)nc1 9.97%
Cc1ccc(S(=O)(=O)NCCc2nnc3ccc(SCC(=O)Nc4ccc(OC(F)(F)F)cc4)nn23)cc1 6.26%
O=C1COc2cc(S(=O)(=O)CCC(=O)N3CCN(c4ccccc4)CC3)c(Cl)cc2N1 0.0192%
CCS(=O)(=O)c1cccc(C(=O)N2CCN(c3nc4c(C)ccc(Cl)c4s3)CC2)c1 -0.149%
CCCCCn1c(CNC(=O)c2ccc(F)cc2)nc2ccccc21 -13.1%
CN(C(=O)Cn1ncc2c1-c1ccccc1OC2)c1ccc(Br)cc1 7.25%
N=C(N)N1CCc2ccccc2C1 -6.25%
COC(=O)c1ccc(CSc2nc3c([nH]c4ccccc43)c(=O)n2-c2cc(C)cc(C)c2)o1 -8.23%
COc1ccc(OC)c(CCNC(=O)C(C)n2c(C)c3cnn(-c4ccccc4)c(=O)c3c2C)c1 (centres undefined) -14.2%
COc1ccccc1CNS(=O)(=O)c1ccc(N2CCCCS2(=O)=O)cc1 8.39%
